Source: the supplement of paper PMC11417369
± gives the standard deviation of the averaged measurements. Some of the results follow.

tested on: PfAP2-G AP2 domain (GST-tagged); assay: gcPBM binding intensity (ln(normalized median fluorescence intensity)); higher = stronger DNA binding
Method in brief: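 GST-fused DNA-binding domains of P. falciparum, expressed in E. coli, were applied at about 25 μg on average for 1 h to an Agilent 4 × 180k array of primer-extended double-stranded 36-bp intergenic genomic probes and negative controls. Binding intensity is the highest Masliner-normalised natural-log median intensity across replicate spots of either probe orientation, measured with Alexa488 anti-GST antibody and a 488 nm scan.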

Row | Sequence | gcPBM binding intensity (ln)
1 | ATAATATGAAACTCGTACGAGGTTGTCCCAAATATA [CACACA_negctrl_site1350] | 10.9 ± 0.56
2 | TTAATACAAATAAAAAGTACAAGTATCGAACTACTA [XGTACX_site6308] | 11.3 ± 0.67
3 | TTTTTAGTAACATATAGTACATATATATATATATGT [XGTACX_site4780] | 10.9 ± 0.64
4 | AAAAAGAATGTGAACACACACATTGAATATAATTTA [CACACA_site1262] | 10.095 ± 0.007
5 | ATATATTATCAACTTACACACAGAAAAATATAATAA [CACACA_site293] | 9.975 ± 0.092
6 | GATATGTAAATAATATGTACATATTTATATTGTATT [XGTACX_site4052] | 11.3 ± 0.88
7 | TTTAAAGGTGATAAAACACACGATTTAGAAATGTAT [CACACA_site3161] | 9.97 ± 0.085
8 | TTAAAAAACATTTGAACATGCAATTGTATATGTAGA [TGCATGCA_site334] | 9.77 ± 0.19
9 | ATATATACCTATATTACACACTTCTTATTCTAAGAA [CACACA_site7421] | 9.865 ± 0.092
10 | ATTGTTACATAAAATGCACACTTTCAAATATGCTAA [CACACA_site5600] | 9.93 ± 0.014
11 | TATTTATTAAGACACACACACACACGCACAAAATAA [CACACA_site6254] | 10.6 ± 0.49
12 | AGGGTTCATATATTAACACACACATACATATTATAT [CACACA_site8959] | 9.99 ± 0.16
13 | TATACACATATATATAGTACATATATAATTTACTAT [XGTACX_site1849] | 10.7 ± 0.42
14 | AGTATTCTAATTTTTAAACACACAAATATAAATAAG [CACACA_site9029] | 9.91 ± 0.12
15 | GCAAAATAACAATGTTACACTTATAAAATTGAGGCA [GTGCAC_negctrl_site68] | 9.925 ± 0.078
16 | ATTTAGAATGTTCCTACACACCAAATTTAAGGGTGC [CACACA_site5320] | 10.02 ± 0.035
17 | TTTTTTTTTCTCCATACACACTTGATAAAACTTTTT [CACACA_site4512] | 10 ± 0.13
18 | ATTTATATTCCAATATGTACATATTTTCGTATAACC [XGTACX_site8507] | 11.3 ± 0.85
19 | ATTACAAATTCTTTCAGTACATATAAAGAAAAAAAT [XGTACX_site7786] | 11 ± 0.67
20 | TGAAATTAAATATATACACACATATATATTTATATG [CACACA_site3516] | 9.89
21 | AAACAAAAGGAAAACATATATATATTAAATGTATAT [CACACA_negctrl_site1663] | 9.64 ± 0.33
22 | AAACGGGAGAAATAAAAATAAAAATAATAAAACAAA [XGTACX_negctrl_site586] | 9.8 ± 0.23
23 | TATACTCATGGACACACACACATACACAGACATACA [CACACA_site5024] | 10.8 ± 0.47

Row | Sequence | gcPBM binding intensity (ln)
24 | TAAATATGAGGGAACACACACATGATATATAAATTC [CACACA_site2400] | 10.04 ± 0.049
25 | GGAAATAAAATTAAATGTACGAAAACTCATTAAATT [XGTACX_site4274] | 10.6 ± 0.41
26 | TTCATATATAATTGTACACACAAAAACGACATTGTG [CACACA_site2074] | 11.6 ± 1
27 | TAAATTGGTGCAAAGTGTACATATATATCTTTCCTA [XGTACX_site5458] | 11.1 ± 0.61
28 | GAGAAAAATATATACACACACATAAATATATACATA [CACACA_site1895] | 9.835 ± 0.064
29 | TAAATAAAAAGACACACACACATATTTATATTTATA [CACACA_site7135] | 9.975 ± 0.035
30 | ATATTAAAAAGGAAATGTACGTAATGAAGATCAAGT [XGTACX_site3138] | 11.4 ± 0.79
31 | ATATATGATGTATTTGTGCACATATATATATTATTA [GTGCAC_site9471] | 10.3 ± 0.2
32 | AAATATCAACTCAAATGTACAAATCACAAAAATGTA [XGTACX_site5344] | 10.6 ± 0.53
33 | ATTGCCATTGTTAATGCATGTAACAATTCAGCTCAT [TGCATGCA_site56] | 9.83 ± 0.014
34 | ATTGTTAAATATAATACACACGTTTTTAAAAATATA [CACACA_site5239] | 10.1 ± 0.14
35 | TAAAAATAAATAAATACATGCACCAAAAATAAATTT [TGCATGCA_site801] | 10.02 ± 0.042
36 | AAAAAAAAAAAACATACACACACATATATATATATA [CACACA_site8452] | 9.89 ± 0.37
37 | AATTTGATTATAAATTGTACATATATATATTAAAAG [XGTACX_site5461] | 11 ± 0.6
38 | AAAATTATTTAGTAAGTGCAAAAAAAAAAAAAAAAA | 9.77 ± 0.43
39 | TATACACATAGACACACACACAAAAAAAAAAAAAAA [CACACA_site6338] | 10.1 ± 0.63
40 | GAAAGAAAAAATGATGAATAGAGATCAAATCTATAT [XGTACX_negctrl_site28] | 9.47 ± 0.49
41 | AAGAAAAAAAAAAAAACACACATATATTTATTTATA [CACACA_site7042] | 9.36 ± 0.32
42 | TTGAGAAAAATTAATGGTACACATATTATAAGTATA [XGTACX_site6539] | 11.3 ± 0.93
43 | TGTATAACATTTAGGTGTACAATTATATATAATATA [XGTACX_site8131] | 11.4 ± 0.95
44 | TAATTGTACACATGCACACACAAATATTATAGATGT [CACACA_site6528] | 11.4 ± 0.92
45 | TGACATATTATTAGGTGGTCACGTCTCCACGTCAAG [XGTACX_site7943] | 11.4 ± 0.87
46 | AGGCTATAATACCATACACACATTTATAAAATAACA [CACACA_site6990] | 10.12 ± 0.092

Row | Sequence | gcPBM binding intensity (ln)
47 | TAAAAATTTGATCAAACACACGTTGCATAAATTATA [CACACA_site6040] | 10 ± 0.042
48 | TACATATAAACAATAACACACACCTAGGTACATGGA [CACACA_site8178] | 10.9 ± 0.54
49 | AATTAACAAAAACACACACACACACCCACAAAAAAA [CACACA_site517] | 10.4 ± 0.46
50 | ACATATATTTATATATGTACATATGATATATACATA [XGTACX_site6122] | 11.3 ± 0.67
51 | CTTTTGTATATTATATGTACACACAATAAGTTAATA [XGTACX_site1684] | 11.5 ± 0.92
52 | TTATGTGATAAAAAAAAAATACAACAAAGTTAAATA [GTGCAC_negctrl_site36] | 9.915 ± 0.035
53 | ATATATATATATATAATACACACTTATGAAATGTCT [CACACA_site1827] | 10.3 ± 0.45
54 | TTTTTTATATTGTGATGTACAAATTTTAAAATGTAG [XGTACX_site1875] | 11 ± 0.73
55 | GTGTGGAGTTACAAAGAGGAGAACCTCACAGTAATC [CACACA_negctrl_site527] | 10.2 ± 0.28
56 | AAATTCGTTATAAAAACATGCAACGATCAACATTGT [TGCATGCA_site844] | 9.905 ± 0.007
57 | TTACTCTTTATATAATGTACATATATATATATATTA [XGTACX_site2624] | 11 ± 0.52
58 | GTAATATTAAAATATACACACATAGAATATATATAT [CACACA_site4391] | 9.99 ± 0.23
59 | ATAATCATAAAATAAACACACATATATAAATATATT [CACACA_site276] | 9.9 ± 0.17
60 | TTACACATATTTTTAATTATTCTGAATTCAAAAAAA [CACACA_negctrl_site1706] | 9.775 ± 0.078
61 | TTATATTTATTGATATGTACATATTATAATTAATTA [XGTACX_site586] | 11.1 ± 0.7
62 | AAAAATGCCAGAAAACGTACTCGGATTTTCTAATAT [XGTACX_site6552] | 11.1 ± 0.74
63 | TGATTACATATGATGTGTACCTAATTTTGTTTACAC [XGTACX_site7032] | 11.2 ± 0.54
64 | AAAACACGCGGACACACACACACACCCACCCATATA [CACACA_site8688] | 11.5 ± 0.94
65 | TTTTAATATTTTGCCTGTACATAAAAGTGAGAAGAT [XGTACX_site2503] | 11.2 ± 0.59
66 | AATCTATATTAATACACACACACATATATTTATATA [CACACA_site7732] | 10.05 ± 0.092
67 | TTTATTTTGACAGATTGTACACTTTATACATGTTTT [XGTACX_site2356] | 11.2 ± 0.79
68 | TGAAAAAAGAAAAATACACACATATAACATAATATA [CACACA_site7126] | 9.72 ± 0.18
69 | GTATATATTTCCAGAAGTACTTATTTTTATGTATGT [XGTACX_site4079] | 11.4 ± 0.78

Row | Sequence | gcPBM binding intensity (ln)
70 | TATATATTATATAAGAGTACATATAATTATAGTTTT [XGTACX_site5039] | 11.2 ± 0.83
71 | TATAAAGGTTGGTACTGTACAATATAAGAAAAAAAA [XGTACX_site435] | 11.1 ± 0.5
72 | AAATAGTTCATAAAAAGTACAAAATTTTTATCCGTA [XGTACX_site2796] | 11.2 ± 0.79
73 | ATCATTCATTTAACAACACACAACATATTTATCATA [CACACA_site1041] | 9.855 ± 0.035
74 | CTCACAAATGAATACACACAAACATATATATTTATA [CACACA_site1620] | 10.2 ± 0.35
75 | ACTATATATATAAGTGCATGTTCATTATACCTAAAG [TGCATGCA_site696] | 10.3 ± 0.11
76 | AAAAATTCATTTTTATGTACGTACAAATTCTTCGTT [XGTACX_site2471] | 11.8 ± 0.87
77 | AGTAAATTATATATCTGTACATATATATATGTGTAT [XGTACX_site5519] | 11.1 ± 0.62
78 | TTTTAAAAAAATATAATACACACCAAAAATATGCAC [CACACA_site2131] | 10.3 ± 0.18
79 | AAAAAAATATAAATACGTACATATATATATATATAT [XGTACX_site432] | 11.5 ± 0.98
80 | CTATTCTATTTTTATTGTACATATATATAATTTGAA [XGTACX_site389] | 11.1 ± 0.6
81 | AGAAAGGAAAAAACCTCACACATGCTTTTAATAGTA [CACACA_site4602] | 9.77 ± 0.15
82 | TGGAATAATACGCGTACACACATATAAATATTAATA [CACACA_site6211] | 11.7 ± 0.91
83 | ATATAATGGCTAAATAGTACAATATAATATTTTTTA [XGTACX_site8922] | 11 ± 0.71
84 | ACACATGAATATTGTAGTACGGCAATTAATATAATA [XGTACX_site4589] | 11.2 ± 0.59
85 | CAAATACACCAACACACACACACAAAAAAAAAAAAA [CACACA_site514] | 10.3 ± 0.58
86 | TAAGTACGACTTGACACACATACACATATATATATA [CACACA_site1286] | 11.2 ± 0.8
87 | ATTACCAACAGATCTTGTACATATTAAAGCATCTTA [XGTACX_site2361] | 10.8 ± 0.49
88 | ATATACAAAGAAGCAGTGCATATTTTCTTATTTATG [GTGCAC_site9567] | 9.77 ± 0.14
89 | TTGATTTCATTTTAAGTGCATAACTAATATTATATA [GTGCAC_site9713] | 9.95 ± 0.028
